Data: article PMC12820563, “FoxP3 forms a head-to-head dimer in vivo and stabilizes its multimerization on adjacent microsatellites”
The list shows a part of the results.

target: T1, MBP-FoxP1dN (Mus musculus, UniProt P58462 326-579); test: PD-seq (MBP pull-down with sequencing); 20 mM Tris-HCl pH 7.5, 100 mM NaCl, 1.5 mM MgCl2, 0.4 uM protein, 0.1 uM dsDNA library, 30 min, room temperature, amylose pull-down; high values mean tight binding; conditions: protein: recombinant; tags: His6-MBP; chain copies: 2; dsDNA, one strand shown
T1 sequence: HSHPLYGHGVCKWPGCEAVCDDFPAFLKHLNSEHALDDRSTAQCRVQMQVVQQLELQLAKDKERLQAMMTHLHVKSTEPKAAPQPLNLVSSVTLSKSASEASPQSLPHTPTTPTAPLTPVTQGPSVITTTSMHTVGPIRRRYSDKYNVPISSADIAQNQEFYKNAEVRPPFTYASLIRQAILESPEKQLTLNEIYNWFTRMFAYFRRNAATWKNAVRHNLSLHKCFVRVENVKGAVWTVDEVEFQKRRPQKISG
Procedure, shortened: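 The N-terminus-lacking fragment of mouse FoxP3 or FoxP1 carried a His6-MBP tag and was expressed in E. coli. At 0.4 µM it was incubated with 0.1 µM Klenow-filled degenerate double-stranded DNA library for 30 min at room temperature in Tris pH 7.5 buffer with NaCl and MgCl2, and complexes were caught on amylose resin, washed three times, released with proteinase K, PCR-barcoded and Illumina-sequenced. Binding is reads-per-million enrichment of pull-down over input with replicates pooled.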

Sequence	binding signal
GATGATTGTTCTCCCAGCTGATGAATTGCTGTTGTCGAGTAAACAAATTTTCCTAATCTTTCTGTTCAAGCGCCATCTAC	2.5 RPM ratio (pull-down/input)
GATGATTGTTCTCCCAGCTGATGAATTACCAAGATCGAGTAAACAAATTTTCCTAATCTTTCTGTTCAAGCGCCATCTAC	0.971 RPM ratio (pull-down/input)
GATGATTGTTCTCCCAGCTGATGAATTTCACTGCTCGAGTAAACAAATTTTCCTAATCTTTCTGTTCAAGCGCCATCTAC	0.772 RPM ratio (pull-down/input)
GATGATTGTTCTCCCAGCTGATGAATTTTCCAAGTCGAGTAAACAAATTTTCCTAATCTTTCTGTTCAAGCGCCATCTAC	0.885 RPM ratio (pull-down/input)
GATGATTGTTCTCCCAGCTGATGAATTAGTATGATCGAGTAAACAAATTTTCCTAATCTTTCTGTTCAAGCGCCATCTAC	1.17 RPM ratio (pull-down/input)
GATGATTGTTCTCCCAGCTGATGAATTCAAGACGTCGAGTAAACAAATTTTCCTAATCTTTCTGTTCAAGCGCCATCTAC	0.855 RPM ratio (pull-down/input)
GATGATTGTTCTCCCAGCTGATGAATTGCACAATTCGAGTAAACAAATTTTCCTAATCTTTCTGTTCAAGCGCCATCTAC	1.44 RPM ratio (pull-down/input)
GATGATTGTTCTCCCAGCTGATGAATTACGGTCATCGAGTAAACAAATTTTCCTAATCTTTCTGTTCAAGCGCCATCTAC	0.994 RPM ratio (pull-down/input)
GATGATTGTTCTCCCAGCTGATGAATTTGCGCGCTCGAGTAAACAAATTTTCCTAATCTTTCTGTTCAAGCGCCATCTAC	1.02 RPM ratio (pull-down/input)
GATGATTGTTCTCCCAGCTGATGAATTTACTTCTTCGAGTAAACAAATTTTCCTAATCTTTCTGTTCAAGCGCCATCTAC	1.33 RPM ratio (pull-down/input)
GATGATTGTTCTCCCAGCTGATGAATTGCATTTGTCGAGTAAACAAATTTTCCTAATCTTTCTGTTCAAGCGCCATCTAC	1.43 RPM ratio (pull-down/input)
GATGATTGTTCTCCCAGCTGATGAATTGACACTGTCGAGTAAACAAATTTTCCTAATCTTTCTGTTCAAGCGCCATCTAC	1.08 RPM ratio (pull-down/input)
GATGATTGTTCTCCCAGCTGATGAATTTACCGAATCGAGTAAACAAATTTTCCTAATCTTTCTGTTCAAGCGCCATCTAC	1.37 RPM ratio (pull-down/input)
GATGATTGTTCTCCCAGCTGATGAATTATCTTTCTCGAGTAAACAAATTTTCCTAATCTTTCTGTTCAAGCGCCATCTAC	0.948 RPM ratio (pull-down/input)
GATGATTGTTCTCCCAGCTGATGAATTGACACCCTCGAGTAAACAAATTTTCCTAATCTTTCTGTTCAAGCGCCATCTAC	1.11 RPM ratio (pull-down/input)
GATGATTGTTCTCCCAGCTGATGAATTTGAGCGATCGAGTAAACAAATTTTCCTAATCTTTCTGTTCAAGCGCCATCTAC	0.84 RPM ratio (pull-down/input)
GATGATTGTTCTCCCAGCTGATGAATTAGTCGATTCGAGTAAACAAATTTTCCTAATCTTTCTGTTCAAGCGCCATCTAC	0.937 RPM ratio (pull-down/input)
GATGATTGTTCTCCCAGCTGATGAATTTAAGCAGTCGAGTAAACAAATTTTCCTAATCTTTCTGTTCAAGCGCCATCTAC	0.917 RPM ratio (pull-down/input)
GATGATTGTTCTCCCAGCTGATGAATTTGGATGGTCGAGTAAACAAATTTTCCTAATCTTTCTGTTCAAGCGCCATCTAC	0.869 RPM ratio (pull-down/input)
GATGATTGTTCTCCCAGCTGATGAATTGTGGACTTCGAGTAAACAAATTTTCCTAATCTTTCTGTTCAAGCGCCATCTAC	1.08 RPM ratio (pull-down/input)
GATGATTGTTCTCCCAGCTGATGAATTCGTTGATTCGAGTAAACAAATTTTCCTAATCTTTCTGTTCAAGCGCCATCTAC	0.954 RPM ratio (pull-down/input)

Sequence	binding signal
GATGATTGTTCTCCCAGCTGATGAATTAATCTGATCGAGTAAACAAATTTTCCTAATCTTTCTGTTCAAGCGCCATCTAC	0.897 RPM ratio (pull-down/input)
GATGATTGTTCTCCCAGCTGATGAATTTGGAACTTCGAGTAAACAAATTTTCCTAATCTTTCTGTTCAAGCGCCATCTAC	0.857 RPM ratio (pull-down/input)
GATGATTGTTCTCCCAGCTGATGAATTCCGGGGTTCGAGTAAACAAATTTTCCTAATCTTTCTGTTCAAGCGCCATCTAC	0.78 RPM ratio (pull-down/input)
GATGATTGTTCTCCCAGCTGATGAATTATTAGAGTCGAGTAAACAAATTTTCCTAATCTTTCTGTTCAAGCGCCATCTAC	1.01 RPM ratio (pull-down/input)
GATGATTGTTCTCCCAGCTGATGAATTGGGAGAATCGAGTAAACAAATTTTCCTAATCTTTCTGTTCAAGCGCCATCTAC	0.885 RPM ratio (pull-down/input)
GATGATTGTTCTCCCAGCTGATGAATTACCCCGTTCGAGTAAACAAATTTTCCTAATCTTTCTGTTCAAGCGCCATCTAC	0.887 RPM ratio (pull-down/input)
GATGATTGTTCTCCCAGCTGATGAATTACATGCTTCGAGTAAACAAATTTTCCTAATCTTTCTGTTCAAGCGCCATCTAC	1.3 RPM ratio (pull-down/input)
GATGATTGTTCTCCCAGCTGATGAATTGAAGCGTTCGAGTAAACAAATTTTCCTAATCTTTCTGTTCAAGCGCCATCTAC	0.916 RPM ratio (pull-down/input)
GATGATTGTTCTCCCAGCTGATGAATTTCCTGTTTCGAGTAAACAAATTTTCCTAATCTTTCTGTTCAAGCGCCATCTAC	0.949 RPM ratio (pull-down/input)
GATGATTGTTCTCCCAGCTGATGAATTGTGCTATTCGAGTAAACAAATTTTCCTAATCTTTCTGTTCAAGCGCCATCTAC	1.26 RPM ratio (pull-down/input)
GATGATTGTTCTCCCAGCTGATGAATTCGAGTTCTCGAGTAAACAAATTTTCCTAATCTTTCTGTTCAAGCGCCATCTAC	0.817 RPM ratio (pull-down/input)
GATGATTGTTCTCCCAGCTGATGAATTACTTGCCTCGAGTAAACAAATTTTCCTAATCTTTCTGTTCAAGCGCCATCTAC	0.977 RPM ratio (pull-down/input)
GATGATTGTTCTCCCAGCTGATGAATTTATCTAATCGAGTAAACAAATTTTCCTAATCTTTCTGTTCAAGCGCCATCTAC	1.32 RPM ratio (pull-down/input)
GATGATTGTTCTCCCAGCTGATGAATTTTTGTACTCGAGTAAACAAATTTTCCTAATCTTTCTGTTCAAGCGCCATCTAC	1.14 RPM ratio (pull-down/input)
GATGATTGTTCTCCCAGCTGATGAATTATGCAACTCGAGTAAACAAATTTTCCTAATCTTTCTGTTCAAGCGCCATCTAC	1.33 RPM ratio (pull-down/input)
GATGATTGTTCTCCCAGCTGATGAATTCCATGTGTCGAGTAAACAAATTTTCCTAATCTTTCTGTTCAAGCGCCATCTAC	0.939 RPM ratio (pull-down/input)
GATGATTGTTCTCCCAGCTGATGAATTTCACCGTTCGAGTAAACAAATTTTCCTAATCTTTCTGTTCAAGCGCCATCTAC	0.805 RPM ratio (pull-down/input)
GATGATTGTTCTCCCAGCTGATGAATTTATTGGTTCGAGTAAACAAATTTTCCTAATCTTTCTGTTCAAGCGCCATCTAC	1.47 RPM ratio (pull-down/input)
GATGATTGTTCTCCCAGCTGATGAATTCGTTTAGTCGAGTAAACAAATTTTCCTAATCTTTCTGTTCAAGCGCCATCTAC	0.947 RPM ratio (pull-down/input)
GATGATTGTTCTCCCAGCTGATGAATTCGTGAGTTCGAGTAAACAAATTTTCCTAATCTTTCTGTTCAAGCGCCATCTAC	0.814 RPM ratio (pull-down/input)
GATGATTGTTCTCCCAGCTGATGAATTAAAAGTCTCGAGTAAACAAATTTTCCTAATCTTTCTGTTCAAGCGCCATCTAC	0.816 RPM ratio (pull-down/input)

Sequence	binding signal
GATGATTGTTCTCCCAGCTGATGAATTACCGGGTTCGAGTAAACAAATTTTCCTAATCTTTCTGTTCAAGCGCCATCTAC	0.843 RPM ratio (pull-down/input)
GATGATTGTTCTCCCAGCTGATGAATTAATAGGGTCGAGTAAACAAATTTTCCTAATCTTTCTGTTCAAGCGCCATCTAC	0.823 RPM ratio (pull-down/input)
GATGATTGTTCTCCCAGCTGATGAATTTGGGTACTCGAGTAAACAAATTTTCCTAATCTTTCTGTTCAAGCGCCATCTAC	0.961 RPM ratio (pull-down/input)
GATGATTGTTCTCCCAGCTGATGAATTATGGACTTCGAGTAAACAAATTTTCCTAATCTTTCTGTTCAAGCGCCATCTAC	0.923 RPM ratio (pull-down/input)
GATGATTGTTCTCCCAGCTGATGAATTGTCCTTATCGAGTAAACAAATTTTCCTAATCTTTCTGTTCAAGCGCCATCTAC	1.13 RPM ratio (pull-down/input)
GATGATTGTTCTCCCAGCTGATGAATTTAACAGATCGAGTAAACAAATTTTCCTAATCTTTCTGTTCAAGCGCCATCTAC	0.842 RPM ratio (pull-down/input)
GATGATTGTTCTCCCAGCTGATGAATTTTGGGCTTCGAGTAAACAAATTTTCCTAATCTTTCTGTTCAAGCGCCATCTAC	0.804 RPM ratio (pull-down/input)
GATGATTGTTCTCCCAGCTGATGAATTGTGCACTTCGAGTAAACAAATTTTCCTAATCTTTCTGTTCAAGCGCCATCTAC	1.15 RPM ratio (pull-down/input)
GATGATTGTTCTCCCAGCTGATGAATTCCCTTAATCGAGTAAACAAATTTTCCTAATCTTTCTGTTCAAGCGCCATCTAC	0.924 RPM ratio (pull-down/input)
GATGATTGTTCTCCCAGCTGATGAATTCTATGCTTCGAGTAAACAAATTTTCCTAATCTTTCTGTTCAAGCGCCATCTAC	1.04 RPM ratio (pull-down/input)
GATGATTGTTCTCCCAGCTGATGAATTTTCCATGTCGAGTAAACAAATTTTCCTAATCTTTCTGTTCAAGCGCCATCTAC	0.844 RPM ratio (pull-down/input)
GATGATTGTTCTCCCAGCTGATGAATTCGTTGGATCGAGTAAACAAATTTTCCTAATCTTTCTGTTCAAGCGCCATCTAC	0.888 RPM ratio (pull-down/input)
GATGATTGTTCTCCCAGCTGATGAATTACCAGAGTCGAGTAAACAAATTTTCCTAATCTTTCTGTTCAAGCGCCATCTAC	0.959 RPM ratio (pull-down/input)
GATGATTGTTCTCCCAGCTGATGAATTGAGCGGCTCGAGTAAACAAATTTTCCTAATCTTTCTGTTCAAGCGCCATCTAC	0.726 RPM ratio (pull-down/input)
GATGATTGTTCTCCCAGCTGATGAATTCGTATGCTCGAGTAAACAAATTTTCCTAATCTTTCTGTTCAAGCGCCATCTAC	0.899 RPM ratio (pull-down/input)
GATGATTGTTCTCCCAGCTGATGAATTCGAAACGTCGAGTAAACAAATTTTCCTAATCTTTCTGTTCAAGCGCCATCTAC	0.878 RPM ratio (pull-down/input)
GATGATTGTTCTCCCAGCTGATGAATTCTCGAGTTCGAGTAAACAAATTTTCCTAATCTTTCTGTTCAAGCGCCATCTAC	0.782 RPM ratio (pull-down/input)
GATGATTGTTCTCCCAGCTGATGAATTGATTACTTCGAGTAAACAAATTTTCCTAATCTTTCTGTTCAAGCGCCATCTAC	1.48 RPM ratio (pull-down/input)
GATGATTGTTCTCCCAGCTGATGAATTCTAGTCGTCGAGTAAACAAATTTTCCTAATCTTTCTGTTCAAGCGCCATCTAC	0.894 RPM ratio (pull-down/input)
GATGATTGTTCTCCCAGCTGATGAATTTCAGTCCTCGAGTAAACAAATTTTCCTAATCTTTCTGTTCAAGCGCCATCTAC	0.712 RPM ratio (pull-down/input)
GATGATTGTTCTCCCAGCTGATGAATTTAATTCATCGAGTAAACAAATTTTCCTAATCTTTCTGTTCAAGCGCCATCTAC	0.965 RPM ratio (pull-down/input)
